# Assay results reported in the supplement of paper PMC8728848.
# The list shows a part of the results.
# B1: LecB PA7 (Pseudomonas aeruginosa) (protein)
# chain: MATQGVFTLPANTRFGVTAFANSSATQTVKVLVNNETAATFTGQSTNNAVIGSQVLNSGGGGKVQIQVSVNGRSSDLVSAQVILANELNVALVGSEDSTDNDYNDAVVVINWPLG
# Tests used:
# Test in all cases: glycan array binding signal (z-score within array); higher = stronger binding
# Details in all cases: glycan notation: IUPAC condensed, linker removed
# [1] = molecular target: Gal(a1-3)Gal(b1-4)GlcNAc(b1-2)Man
# How it was run: (§1)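 Negative Z-scores can be read as non-binding. The Z-score is calculated within each array and then averaged across arrays of one protein sequence at different concentrations or buffers and across linkers. Arrays, 3228 in all, were curated from the Consortium for Functional Glycomics database and kept only where the protein sequence was available.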
# [2] = molecular target: Gal(a1-3)Gal(b1-4)GlcNAc(b1-2)Man(a1-3)[Gal(a1-3)Gal(b1-4)GlcNAc(b1-2)Man(a1-6)]Man(b1-4)GlcNAc(b1-4)GlcNAc
# How it was run: as §1
# [3] = molecular target: Gal(a1-3)Gal(b1-4)GlcNAc(b1-3)GalNAc
# How it was run: as §1
# [4] = molecular target: Gal(a1-3)Gal(b1-4)GlcNAc(b1-6)GalNAc
# How it was run: as §1
# [5] = molecular target: Gal(a1-3)Gal(b1-4)[Fuc(a1-3)]GlcNAc
# How it was run: as §1
# [6] = molecular target: Gal(a1-3)Gal(b1-4)[Fuc(a1-3)]GlcNAc(b1-2)Man(a1-3)[Gal(a1-3)Gal(b1-4)[Fuc(a1-3)]GlcNAc(b1-2)Man(a1-6)]Man(b1-4)GlcNAc(b1-4)GlcNAc
# How it was run: as §1
# Gal(a1-3)GalNAc = molecular target: Gal(a1-3)GalNAc
# How it was run: as §1
# [7] = molecular target: Gal(a1-3)[Gal(a1-4)]Gal(b1-4)GlcNAc
# How it was run: as §1
# [8] = molecular target: Gal(a1-4)Gal(b1-3)GlcNAc(b1-2)Man(a1-3)[Gal(a1-4)Gal(b1-3)GlcNAc(b1-2)Man(a1-6)]Man(b1-4)GlcNAc(b1-4)GlcNAc
# How it was run: as §1
# Gal(a1-4)Gal(b1-4)Glc = molecular target: Gal(a1-4)Gal(b1-4)Glc
# How it was run: as §1
# Gal(a1-4)Gal(b1-4)GlcNAc = molecular target: Gal(a1-4)Gal(b1-4)GlcNAc
# How it was run: as §1
# [9] = molecular target: Gal(a1-4)Gal(b1-4)GlcNAc(b1-2)Man(a1-3)[Gal(a1-4)Gal(b1-4)GlcNAc(b1-2)Man(a1-6)]Man(b1-4)GlcNAc(b1-4)GlcNAc
# How it was run: as §1
# [10] = molecular target: Gal(a1-4)Gal(b1-4)GlcNAc(b1-3)Gal(b1-4)Glc
# How it was run: as §1
# Gal(a1-4)GlcNAc = molecular target: Gal(a1-4)GlcNAc
# How it was run: as §1
# Gal(a1-6)Glc = molecular target: Gal(a1-6)Glc
# How it was run: as §1
# Gal(b1-2)Gal = molecular target: Gal(b1-2)Gal
# How it was run: as §1
# Gal(b1-3)Gal = molecular target: Gal(b1-3)Gal
# How it was run: as §1
# Gal(b1-3)Gal(b1-4)GlcNAc = molecular target: Gal(b1-3)Gal(b1-4)GlcNAc
# How it was run: as §1
# Gal(b1-3)GalNAc = molecular target: Gal(b1-3)GalNAc
# How it was run: as §1
# [11] = molecular target: Gal(b1-3)GalNAc(a1-3)[Fuc(a1-2)]Gal(b1-4)Glc
# How it was run: as §1
# [12] = molecular target: Gal(b1-3)GalNAc(a1-3)[Fuc(a1-2)]Gal(b1-4)GlcNAc
# How it was run: as §1
# Gal(b1-3)GalNAc(b1-3)Gal = molecular target: Gal(b1-3)GalNAc(b1-3)Gal
# How it was run: as §1
# [13] = molecular target: Gal(b1-3)GalNAc(b1-3)Gal(a1-4)Gal(b1-4)Glc
# How it was run: as §1
# [14] = molecular target: Gal(b1-3)GalNAc(b1-4)Gal(b1-4)Glc
# How it was run: as §1
# [15] = molecular target: Gal(b1-3)GalNAc(b1-4)[Neu5Ac(a2-3)]Gal(b1-4)Glc
# How it was run: as §1
# Gal(b1-3)GlcNAc = molecular target: Gal(b1-3)GlcNAc
# How it was run: as §1
# [16] = molecular target: Gal(b1-3)GlcNAc(a1-3)Gal(b1-4)GlcNAc
# How it was run: as §1
# [17] = molecular target: Gal(b1-3)GlcNAc(a1-6)Gal(b1-4)GlcNAc
# How it was run: as §1
# Gal(b1-3)GlcNAc(b1-2)Man = molecular target: Gal(b1-3)GlcNAc(b1-2)Man
# How it was run: as §1
# [18] = molecular target: Gal(b1-3)GlcNAc(b1-2)Man(a1-3)[Gal(b1-3)GlcNAc(b1-2)Man(a1-6)]Man(b1-4)GlcNAc(b1-4)GlcNAc
# How it was run: as §1
# [19] = molecular target: Gal(b1-3)GlcNAc(b1-2)Man(a1-3)[Gal(b1-3)GlcNAc(b1-2)Man(a1-6)]Man(b1-4)GlcNAc(b1-4)[Fuc(a1-6)]GlcNAc
# How it was run: as §1
# [20] = molecular target: Gal(b1-3)GlcNAc(b1-2)Man(a1-3)[GlcNAc(b1-4)][Gal(b1-3)GlcNAc(b1-2)Man(a1-6)]Man(b1-4)GlcNAc(b1-4)GlcNAc
# How it was run: as §1
# [21] = molecular target: Gal(b1-3)GlcNAc(b1-2)[Gal(b1-3)GlcNAc(b1-6)]Man(a1-6)[Gal(b1-3)GlcNAc(b1-2)Man(a1-3)]Man(b1-4)GlcNAc(b1-4)GlcNAc
# How it was run: as §1
# [22] = molecular target: Gal(b1-3)GlcNAc(b1-3)Gal(b1-3)GlcNAc
# How it was run: as §1
# [23] = molecular target: Gal(b1-3)GlcNAc(b1-3)Gal(b1-4)Glc
# How it was run: as §1
# [24] = molecular target: Gal(b1-3)GlcNAc(b1-3)Gal(b1-4)GlcNAc
# How it was run: as §1
# [25] = molecular target: Gal(b1-3)GlcNAc(b1-3)Gal(b1-4)GlcNAc(b1-2)Man(a1-3)[Gal(b1-3)GlcNAc(b1-3)Gal(b1-4)GlcNAc(b1-2)Man(a1-6)]Man(b1-4)GlcNAc(b1-4)GlcNAc
# How it was run: as §1
# [26] = molecular target: Gal(b1-3)GlcNAc(b1-3)Gal(b1-4)GlcNAc(b1-2)[Gal(b1-3)GlcNAc(b1-3)Gal(b1-4)GlcNAc(b1-6)]Man(a1-6)[Gal(b1-3)GlcNAc(b1-3)Gal(b1-4)GlcNAc(b1-2)Man(a1-3)]Man(b1-4)GlcNAc(b1-4)[Fuc(a1-6)]GlcNAc
# How it was run: as §1
# [27] = molecular target: Gal(b1-3)GlcNAc(b1-3)Gal(b1-4)GlcNAc(b1-3)Gal(b1-4)GlcNAc(b1-2)[Gal(b1-3)GlcNAc(b1-3)Gal(b1-4)GlcNAc(b1-3)Gal(b1-4)GlcNAc(b1-6)]Man(a1-6)[Gal(b1-3)GlcNAc(b1-3)Gal(b1-4)GlcNAc(b1-3)Gal(b1-4)GlcNAc(b1-2)Man(a1-3)]Man(b1-4)GlcNAc(b1-4)[Fuc(a1-6)]GlcNAc
# How it was run: as §1
# [28] = molecular target: Gal(b1-3)GlcNAc(b1-3)Gal(b1-4)GlcNAc(b1-6)[Gal(b1-3)GlcNAc(b1-3)]Gal(b1-4)Glc
# How it was run: as §1
# [29] = molecular target: Gal(b1-3)GlcNAc(b1-3)Gal(b1-4)[Fuc(a1-3)]GlcNAc
# How it was run: as §1
# [30] = molecular target: Gal(b1-3)GlcNAc(b1-3)Gal(b1-4)[Fuc(a1-3)]GlcNAc(b1-6)[Gal(b1-3)GlcNAc(b1-3)]Gal(b1-4)Glc
# How it was run: as §1
# [31] = molecular target: Gal(b1-3)GlcNAc(b1-3)GalNAc
# How it was run: as §1
# [32] = molecular target: Gal(b1-3)GlcNAc(b1-6)Gal(b1-4)GlcNAc
# How it was run: as §1
# [33] = molecular target: Gal(b1-3)GlcNAc(b1-6)GalNAc
# How it was run: as §1
binder,measurement,setting,value
B1,glycan array binding signal (z-score),[1],-0.502
same,glycan array binding signal (z-score),[2],-0.479
same,glycan array binding signal (z-score),[3],-0.511
same,glycan array binding signal (z-score),[4],-0.446
same,glycan array binding signal (z-score),[5],0.615
same,glycan array binding signal (z-score),[6],0.901
same,glycan array binding signal (z-score),Gal(a1-3)GalNAc,-0.505
same,glycan array binding signal (z-score),[7],-0.506
same,glycan array binding signal (z-score),[8],-0.121
same,glycan array binding signal (z-score),Gal(a1-4)Gal(b1-4)Glc,-0.484
same,glycan array binding signal (z-score),Gal(a1-4)Gal(b1-4)GlcNAc,-0.458
same,glycan array binding signal (z-score),[9],-0.486
same,glycan array binding signal (z-score),[10],-0.486
same,glycan array binding signal (z-score),Gal(a1-4)GlcNAc,-0.513
same,glycan array binding signal (z-score),Gal(a1-6)Glc,-0.479
same,glycan array binding signal (z-score),Gal(b1-2)Gal,-0.49
same,glycan array binding signal (z-score),Gal(b1-3)Gal,-0.49
same,glycan array binding signal (z-score),Gal(b1-3)Gal(b1-4)GlcNAc,-0.498
same,glycan array binding signal (z-score),Gal(b1-3)GalNAc,-0.403
same,glycan array binding signal (z-score),[11],-0.487
same,glycan array binding signal (z-score),[12],-0.46
same,glycan array binding signal (z-score),Gal(b1-3)GalNAc(b1-3)Gal,-0.514
same,glycan array binding signal (z-score),[13],-0.485
same,glycan array binding signal (z-score),[14],-0.506
same,glycan array binding signal (z-score),[15],-0.426
same,glycan array binding signal (z-score),Gal(b1-3)GlcNAc,-0.504
same,glycan array binding signal (z-score),[16],-0.51
same,glycan array binding signal (z-score),[17],-0.512
same,glycan array binding signal (z-score),Gal(b1-3)GlcNAc(b1-2)Man,-0.465
same,glycan array binding signal (z-score),[18],0.018
same,glycan array binding signal (z-score),[19],0.034
same,glycan array binding signal (z-score),[20],-0.075
same,glycan array binding signal (z-score),[21],-0.209
same,glycan array binding signal (z-score),[22],-0.499
same,glycan array binding signal (z-score),[23],-0.365
same,glycan array binding signal (z-score),[24],-0.498
same,glycan array binding signal (z-score),[25],-0.35
same,glycan array binding signal (z-score),[26],0.391
same,glycan array binding signal (z-score),[27],0.705
same,glycan array binding signal (z-score),[28],-0.472
same,glycan array binding signal (z-score),[29],1.8
same,glycan array binding signal (z-score),[30],-0.017
same,glycan array binding signal (z-score),[31],-0.499
same,glycan array binding signal (z-score),[32],-0.507
same,glycan array binding signal (z-score),[33],-0.504
